Some of the results follow. Cut-off read from the data, not from the text of the source: active = 3.2 or more and inactive = the rest. Most of these values are background signal.
The binders below were run against SHP2 C-SH2 domain E139D (assay: enrichment score (SH2-bound / input frequency) (ratio); bacterial display of known human phosphotyrosine sites (pTyr-Var adds point mutants) read by sequencing; higher = stronger binding; tyrosines were phosphorylated by kinases first). Conditions: peptide library: Human pTyr.
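Note: displayed peptides selected on beads carrying the immobilized SH2 domain, with library peptides lacking any tyrosine serving as negative controls.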

Row | Binder | enrichment score
1 | FGIKPDDYLASICSE [PIP5K1B_HUMAN_105_YA] | inactive: 1.15
2 | ELNDMDDYDSEDDND [PHF14_HUMAN_206] | inactive: 0.808
3 | STKMHGDYTLTLRKG [PIK3R1_HUMAN_368] | inactive: 0.906
4 | SVGSSSSYPISPAVS [PLEC_HUMAN_4393] | inactive: 0.584
5 | AHASDEIYEIMQKCW [PGFRB_HUMAN_934] | inactive: 1.46
6 | ERDINSLYDVSRMAV [PLCG2_HUMAN_753_YA] | inactive: 0.673
7 | IGTAEPDYGALAEGR [PLCG1_HUMAN_771_YA] | inactive: 0.652
8 | DLHITPIYEGRTYYS [PKP4_HUMAN_415] | inactive: 0.913
9 | EELEEPVYEEPVYEE [ARAP3_HUMAN_1403] | inactive: 1.32
10 | NRYAGEVYGMIRFSG [PI4KA_HUMAN_1154] | inactive: 1.85
11 | TLCGTPNYISPEIAT [PLK4_HUMAN_177] | inactive: 1
12 | IGTAEPDYGALYEGR [PLCG1_HUMAN_771] | inactive: 0.519
13 | DIMHDSNYVSKGSTF [PGFRA_HUMAN_849] | inactive: 0.711
14 | TGESDGGYMDMSKDE [PGFRB_HUMAN_740] | inactive: 0.744
15 | TKGYYSPYSVSGSGS [PLEC_HUMAN_4615] | inactive: 1.36
16 | KGKKFLQYNRLQLSR [PLCG1_HUMAN_1003] | inactive: 1.88
17 | VRYQPGKYPMPNQSV [PLS4_HUMAN_88] | inactive: 2.2
18 | SKDESVDYVPMLDMK [PGFRB_HUMAN_751] | inactive: 0.694

Each binder was assayed against SHP2 C-SH2 domain wild-type in the same assay as above. Conditions: peptide library: Human pTyr.

Row | Binder | enrichment score
19 | FGIKPDDYLASICSE [PIP5K1B_HUMAN_105_YA] | inactive: 0.894
20 | ELNDMDDYDSEDDND [PHF14_HUMAN_206] | inactive: 0.992
21 | STKMHGDYTLTLRKG [PIK3R1_HUMAN_368] | inactive: 0.901
22 | SVGSSSSYPISPAVS [PLEC_HUMAN_4393] | inactive: 0.512
23 | AHASDEIYEIMQKCW [PGFRB_HUMAN_934] | inactive: 1.4
24 | ERDINSLYDVSRMAV [PLCG2_HUMAN_753_YA] | inactive: 0.612
25 | IGTAEPDYGALAEGR [PLCG1_HUMAN_771_YA] | inactive: 0.44
26 | DLHITPIYEGRTYYS [PKP4_HUMAN_415] | inactive: 1.63
27 | EELEEPVYEEPVYEE [ARAP3_HUMAN_1403] | inactive: 1.24
28 | NRYAGEVYGMIRFSG [PI4KA_HUMAN_1154] | inactive: 1.57
29 | TLCGTPNYISPEIAT [PLK4_HUMAN_177] | inactive: 0.767
30 | IGTAEPDYGALYEGR [PLCG1_HUMAN_771] | inactive: 0.35
31 | DIMHDSNYVSKGSTF [PGFRA_HUMAN_849] | inactive: 0.708
32 | TGESDGGYMDMSKDE [PGFRB_HUMAN_740] | inactive: 0.669
33 | TKGYYSPYSVSGSGS [PLEC_HUMAN_4615] | inactive: 2.84
34 | KGKKFLQYNRLQLSR [PLCG1_HUMAN_1003] | inactive: 1.74
35 | VRYQPGKYPMPNQSV [PLS4_HUMAN_88] | inactive: 2.49
36 | SKDESVDYVPMLDMK [PGFRB_HUMAN_751] | inactive: 0.641

These binders were tested against SHP2 N-SH2 domain L43F in the same assay as above. Conditions: peptide library: Human pTyr.

Row | Binder | enrichment score
37 | FGIKPDDYLASICSE [PIP5K1B_HUMAN_105_YA] | inactive: 1.07
38 | ELNDMDDYDSEDDND [PHF14_HUMAN_206] | inactive: 1.01
39 | STKMHGDYTLTLRKG [PIK3R1_HUMAN_368] | inactive: 0.957
40 | SVGSSSSYPISPAVS [PLEC_HUMAN_4393] | inactive: 0.569
41 | AHASDEIYEIMQKCW [PGFRB_HUMAN_934] | inactive: 1.41
42 | ERDINSLYDVSRMAV [PLCG2_HUMAN_753_YA] | inactive: 0.597
43 | IGTAEPDYGALAEGR [PLCG1_HUMAN_771_YA] | inactive: 0.606
44 | DLHITPIYEGRTYYS [PKP4_HUMAN_415] | inactive: 0.732
45 | EELEEPVYEEPVYEE [ARAP3_HUMAN_1403] | inactive: 1.23
46 | NRYAGEVYGMIRFSG [PI4KA_HUMAN_1154] | inactive: 1.51
47 | TLCGTPNYISPEIAT [PLK4_HUMAN_177] | inactive: 1.06
48 | IGTAEPDYGALYEGR [PLCG1_HUMAN_771] | inactive: 0.378
49 | DIMHDSNYVSKGSTF [PGFRA_HUMAN_849] | inactive: 0.636
50 | TGESDGGYMDMSKDE [PGFRB_HUMAN_740] | inactive: 0.824
51 | TKGYYSPYSVSGSGS [PLEC_HUMAN_4615] | inactive: 0.849
52 | KGKKFLQYNRLQLSR [PLCG1_HUMAN_1003] | inactive: 1.95
53 | VRYQPGKYPMPNQSV [PLS4_HUMAN_88] | inactive: 2.07
54 | SKDESVDYVPMLDMK [PGFRB_HUMAN_751] | inactive: 0.747

What follows are binders tested against SHP2 N-SH2 domain T42A in the same assay as above. Conditions: peptide library: Human pTyr.

Row | Binder | enrichment score
55 | FGIKPDDYLASICSE [PIP5K1B_HUMAN_105_YA] | inactive: 0.882
56 | ELNDMDDYDSEDDND [PHF14_HUMAN_206] | inactive: 0.763
57 | STKMHGDYTLTLRKG [PIK3R1_HUMAN_368] | inactive: 1.04
58 | SVGSSSSYPISPAVS [PLEC_HUMAN_4393] | inactive: 0.595
59 | AHASDEIYEIMQKCW [PGFRB_HUMAN_934] | inactive: 1.1
60 | ERDINSLYDVSRMAV [PLCG2_HUMAN_753_YA] | inactive: 0.485
61 | IGTAEPDYGALAEGR [PLCG1_HUMAN_771_YA] | inactive: 0.683
62 | DLHITPIYEGRTYYS [PKP4_HUMAN_415] | inactive: 0.637
63 | EELEEPVYEEPVYEE [ARAP3_HUMAN_1403] | inactive: 1.28
64 | NRYAGEVYGMIRFSG [PI4KA_HUMAN_1154] | inactive: 1.76
65 | TLCGTPNYISPEIAT [PLK4_HUMAN_177] | inactive: 0.959
66 | IGTAEPDYGALYEGR [PLCG1_HUMAN_771] | inactive: 0.499
67 | DIMHDSNYVSKGSTF [PGFRA_HUMAN_849] | inactive: 0.564
68 | TGESDGGYMDMSKDE [PGFRB_HUMAN_740] | inactive: 0.633
69 | TKGYYSPYSVSGSGS [PLEC_HUMAN_4615] | inactive: 0.908
70 | KGKKFLQYNRLQLSR [PLCG1_HUMAN_1003] | inactive: 1.64
71 | VRYQPGKYPMPNQSV [PLS4_HUMAN_88] | inactive: 2.21
72 | SKDESVDYVPMLDMK [PGFRB_HUMAN_751] | inactive: 0.819

What follows are binders tested against SHP2 N-SH2 domain T52S in the same assay as above. Conditions: peptide library: Human pTyr.

Row | Binder | enrichment score
73 | FGIKPDDYLASICSE [PIP5K1B_HUMAN_105_YA] | inactive: 1.28
74 | ELNDMDDYDSEDDND [PHF14_HUMAN_206] | inactive: 0.973
75 | STKMHGDYTLTLRKG [PIK3R1_HUMAN_368] | inactive: 1.18
76 | SVGSSSSYPISPAVS [PLEC_HUMAN_4393] | inactive: 0.566
77 | AHASDEIYEIMQKCW [PGFRB_HUMAN_934] | inactive: 1.39
78 | ERDINSLYDVSRMAV [PLCG2_HUMAN_753_YA] | inactive: 0.597
79 | IGTAEPDYGALAEGR [PLCG1_HUMAN_771_YA] | inactive: 0.481
80 | DLHITPIYEGRTYYS [PKP4_HUMAN_415] | inactive: 0.932
81 | EELEEPVYEEPVYEE [ARAP3_HUMAN_1403] | inactive: 1.73
82 | NRYAGEVYGMIRFSG [PI4KA_HUMAN_1154] | inactive: 1.91
83 | TLCGTPNYISPEIAT [PLK4_HUMAN_177] | inactive: 0.962
84 | IGTAEPDYGALYEGR [PLCG1_HUMAN_771] | inactive: 0.459
85 | DIMHDSNYVSKGSTF [PGFRA_HUMAN_849] | inactive: 0.652
86 | TGESDGGYMDMSKDE [PGFRB_HUMAN_740] | inactive: 0.922
87 | TKGYYSPYSVSGSGS [PLEC_HUMAN_4615] | inactive: 0.844
88 | KGKKFLQYNRLQLSR [PLCG1_HUMAN_1003] | inactive: 1.83
89 | VRYQPGKYPMPNQSV [PLS4_HUMAN_88] | inactive: 2.7
90 | SKDESVDYVPMLDMK [PGFRB_HUMAN_751] | inactive: 0.68

What follows are binders tested against SHP2 N-SH2 domain wild-type in the same assay as above. Conditions: peptide library: Human pTyr.

Row | Binder | enrichment score
91 | FGIKPDDYLASICSE [PIP5K1B_HUMAN_105_YA] | inactive: 1.25
92 | ELNDMDDYDSEDDND [PHF14_HUMAN_206] | inactive: 1
93 | STKMHGDYTLTLRKG [PIK3R1_HUMAN_368] | inactive: 1.01
94 | SVGSSSSYPISPAVS [PLEC_HUMAN_4393] | inactive: 0.725
95 | AHASDEIYEIMQKCW [PGFRB_HUMAN_934] | inactive: 1.67
96 | ERDINSLYDVSRMAV [PLCG2_HUMAN_753_YA] | inactive: 0.71
97 | IGTAEPDYGALAEGR [PLCG1_HUMAN_771_YA] | inactive: 0.506
98 | DLHITPIYEGRTYYS [PKP4_HUMAN_415] | inactive: 0.748
99 | EELEEPVYEEPVYEE [ARAP3_HUMAN_1403] | inactive: 1.6
100 | NRYAGEVYGMIRFSG [PI4KA_HUMAN_1154] | inactive: 2
101 | TLCGTPNYISPEIAT [PLK4_HUMAN_177] | inactive: 1.02
102 | IGTAEPDYGALYEGR [PLCG1_HUMAN_771] | inactive: 0.411
103 | DIMHDSNYVSKGSTF [PGFRA_HUMAN_849] | inactive: 0.551
104 | TGESDGGYMDMSKDE [PGFRB_HUMAN_740] | inactive: 0.632
105 | TKGYYSPYSVSGSGS [PLEC_HUMAN_4615] | inactive: 0.82
106 | KGKKFLQYNRLQLSR [PLCG1_HUMAN_1003] | inactive: 1.98
107 | VRYQPGKYPMPNQSV [PLS4_HUMAN_88] | active: 3.31
108 | SKDESVDYVPMLDMK [PGFRB_HUMAN_751] | inactive: 0.918

Source: the supplement of paper PMC10369915
